# Source: the supplement of paper PMC4967469
# pIC50: −log10 of the molar value. By IC50 is meant the dose at which the fit gives 50% viability; a limit (>, <) means that the fit lies beyond the doses tested. The AUC spans the tested range (256-fold, ending at the top dose) of the same fit: 1 means no effect, lower means more sensitive. For some assays here: Where the top dose is marked as inferred, it is not printed in the source and was worked back from the curve model.
# Tests used:
# Experiment in all cases: Viability of human cancer cell lines after 72 h of drug (GDSC screen)
# [1] = compound: COC(=O)CNC(=O)C(=O)OC [Dimethyloxalylglycine]; conditions: top dose 4000 µM; top dose inferred
# Method: (§1)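 Human cancer cell lines in 384-well plates, medium with 10% serum, drug for 72 h over a 256-fold dose range (nine 2-fold or five 4-fold steps up to the top dose). Adherent lines were fixed and stained with the nucleic acid dye Syto60, suspension lines read with resazurin; signal relative to control wells, capped at 0 and 100%. One two-parameter sigmoid per drug and line, fitted in a mixed model over all curves with the slope shared within a line.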
# [2] = compound: C=CCNC1=C2C[C@@H](C)C[C@H](OC)[C@H](O)[C@@H](C)/C=C(\C)[C@H](OC(N)=O)[C@@H](OC)/C=C\C=C(/C)C(=O)NC(=CC1=O)C2=O [17-AAG]; conditions: top dose 1 µM
# Method: as §1
# [3] = compound: Cc1cnc(Nc2ccc(OCCN3CCCC3)cc2)nc1Nc1cccc(S(=O)(=O)NC(C)(C)C)c1 [TG101348]; conditions: top dose 10.24 µM
# Method: as §1
# [4] = compound: CN(C)Cc1cccc(N=C(c2ccccc2)c2c(O)[nH]c3cc(C(=O)N(C)C)ccc23)c1 [BIX02189]; conditions: top dose 20 µM; top dose inferred
# Method: as §1
# [5] = compound: COc1cccc2c1C(=O)c1c(O)c3c(c(O)c1C2=O)C[C@@](O)(C(=O)CO)C[C@@H]3O[C@H]1C[C@H](N)[C@H](O)[C@H](C)O1 [Doxorubicin]; conditions: top dose 1.024 µM
# Method: as §1
# [6] = compound: CCc1cc(-c2n[nH]c(C)c2-c2ccc3c(c2)OCCO3)c(O)cc1O [CCT018159]; conditions: top dose 10 µM; top dose inferred
# Method: as §1
# [7] = compound: COc1cccc2cc(-c3nc([C@H]4CC[C@H](C(=O)O)CC4)n4ncnc(N)c34)[nH]c12 [OSI-027]; conditions: top dose 20 µM
# Method: as §1
# [8] = compound: CS(=O)(=O)c1ccc(C(=O)Nc2ccc(Cl)c(-c3ccccn3)c2)c(Cl)c1 [Vismodegib]; conditions: top dose 10 µM; top dose inferred
# Method: as §1
# [9] = compound: Cc1cnc(Nc2ccc(F)cc2Cl)nc1-c1c[nH]c(C(=O)N[C@H](CO)c2cccc(Cl)c2)c1 [VX-11e]; conditions: top dose 5.12 µM; top dose inferred
# Method: as §1
# [10] = compound: C=CC(=O)Nc1cc(-n2c(=O)ccc3cnc4ccc(-c5ccc(NS(C)(=O)=O)cc5)cc4c32)ccc1C [BMX-IN-1 (QL-XII-61)]; conditions: top dose 10 µM; top dose inferred
# Method: as §1
# [11] = compound: O=C(c1ccc(C(=O)N2CCC(N3CCCC3)CC2)c(Nc2ccccc2)c1)N1CCC(N2CCCC2)CC1 [UNC1215]; conditions: top dose 1 µM; top dose inferred
# Method: as §1
Cell Line,AUC [1],pIC50 [1],AUC [2],pIC50 [2],AUC [3],pIC50 [3],AUC [4],pIC50 [4],AUC [5],pIC50 [5],AUC [6],pIC50 [6],AUC [7],pIC50 [7],AUC [8],pIC50 [8],AUC [9],pIC50 [9],AUC [10],pIC50 [10],AUC [11],pIC50 [11]
"NCI-H1944 (lung adenocarcinoma, adherent)",0.113,> 4.81,0.512,7.17,0.757,5.43,0.957,< 4.70,0.577,6.97,0.842,5.11,0.658,5.45,0.985,< 5.00,0.892,< 5.29,0.961,< 5.00,0.984,< 6.00
"RERF-LC-KJ (lung adenocarcinoma, adherent)",0.784,2.76,0.734,6.53,0.934,< 4.99,0.986,< 4.70,0.563,7.02,0.912,< 5.00,0.77,5.10,0.981,< 5.00,0.974,< 5.29,0.933,< 5.00,0.986,< 6.00
"TYK-nu (ovary, adherent)",0.864,2.41,0.473,7.28,0.943,< 4.99,0.975,< 4.70,0.823,,0.906,< 5.00,0.923,< 4.70,0.956,< 5.00,0.951,< 5.29,0.983,< 5.00,0.983,< 6.00
"H2595 (mesothelioma, adherent)",0.578,3.35,0.775,6.25,0.864,< 4.99,0.923,< 4.70,0.546,7.05,0.906,< 5.00,0.78,4.92,0.963,< 5.00,0.978,< 5.29,0.954,< 5.00,0.969,< 6.00
"NCI-H2347 (lung adenocarcinoma, adherent)",0.386,3.94,0.639,6.78,0.895,< 4.99,0.944,< 4.70,0.623,6.82,0.857,< 5.00,0.668,5.39,0.983,< 5.00,0.97,< 5.29,0.911,< 5.00,0.977,< 6.00
"WM-115 (melanoma, adherent)",0.484,3.65,0.444,7.37,0.801,5.20,0.945,< 4.70,0.979,< 5.99,0.928,< 5.00,0.332,6.42,0.916,< 5.00,0.772,5.61,0.92,< 5.00,0.977,< 6.00
"Hs939-T (melanoma, adherent)",0.714,2.97,0.52,7.15,0.986,< 4.99,0.985,< 4.70,0.671,6.70,0.923,< 5.00,0.974,< 4.70,0.979,< 5.00,0.935,< 5.29,0.952,< 5.00,0.98,< 6.00
"MDST8 (large intestine, adherent)",0.866,2.45,0.779,6.39,0.88,< 4.99,0.971,< 4.70,0.73,6.54,0.883,< 5.00,0.748,5.19,0.959,< 5.00,0.861,5.37,0.955,< 5.00,0.938,< 6.00
"HCC-15 (lung squamous cell carcinoma, adherent)",0.537,3.49,0.57,6.99,0.896,< 4.99,0.968,< 4.70,0.722,6.48,0.925,< 5.00,0.831,4.74,0.962,< 5.00,0.949,< 5.29,0.97,< 5.00,0.933,< 6.00
"RVH-421 (melanoma, adherent)",0.707,2.92,0.666,6.67,0.97,< 4.99,0.891,< 4.70,0.636,6.76,0.907,< 5.00,0.893,< 4.70,0.98,< 5.00,0.689,5.88,0.975,< 5.00,0.968,< 6.00
"GRANTA-519 (B-cell lymphoma, suspension)",0.549,3.47,0.981,< 6.00,0.903,< 4.99,0.96,< 4.70,0.619,6.88,0.949,< 5.00,0.248,6.59,0.991,< 5.00,0.991,< 5.29,0.892,5.01,0.988,< 6.00
"FTC-133 (thyroid, adherent)",0.797,2.68,0.621,6.85,0.896,< 4.99,0.986,< 4.70,0.72,6.54,0.858,5.02,0.979,< 4.70,0.951,< 5.00,0.978,< 5.29,0.977,< 5.00,0.982,< 6.00
"NCI-H1651 (lung adenocarcinoma, adherent)",0.697,3.03,0.827,6.17,0.984,< 4.99,0.983,< 4.70,0.332,7.68,0.864,5.01,0.948,< 4.70,0.984,< 5.00,0.987,< 5.29,0.984,< 5.00,0.969,< 6.00
"COLO-668 (small cell lung carcinoma, adherent)",0.356,4.00,0.881,< 6.00,0.821,5.23,0.925,< 4.70,0.557,7.04,0.862,5.07,0.778,5.09,0.989,< 5.00,0.892,< 5.29,0.965,< 5.00,0.988,< 6.00
"PCI-6A (head and neck, adherent)",0.789,2.76,0.497,7.21,0.806,5.29,0.866,4.76,0.347,7.61,0.928,< 5.00,0.457,6.02,0.96,< 5.00,0.925,< 5.29,0.986,< 5.00,0.986,< 6.00
"NCI-H841 (small cell lung carcinoma, adherent)",0.565,3.42,0.724,6.57,0.932,< 4.99,0.977,< 4.70,0.87,6.02,0.953,< 5.00,0.463,6.00,0.957,< 5.00,0.985,< 5.29,0.972,< 5.00,0.987,< 6.00
"LB373-MEL-D (melanoma, adherent)",0.663,3.15,0.938,< 6.00,0.989,< 4.99,0.982,< 4.70,0.67,6.73,0.99,< 5.00,0.959,< 4.70,0.99,< 5.00,0.924,< 5.29,0.825,5.23,0.989,< 6.00
"GI-1 (glioma, adherent)",0.424,3.81,0.648,6.80,0.793,5.35,0.949,< 4.70,0.523,7.13,0.88,5.02,0.274,6.53,0.957,< 5.00,0.972,< 5.29,0.974,< 5.00,0.986,< 6.00
"NCI-H1648 (lung adenocarcinoma, adherent)",0.791,2.72,0.657,6.75,0.922,< 4.99,0.971,< 4.70,0.574,6.99,0.984,< 5.00,0.334,6.38,0.973,< 5.00,0.898,< 5.29,0.949,< 5.00,0.981,< 6.00
"LC-1-sq (lung squamous cell carcinoma, adherent)",0.636,3.20,0.885,< 6.00,0.882,< 4.99,0.985,< 4.70,0.636,6.79,0.985,< 5.00,0.727,5.20,0.961,< 5.00,0.982,< 5.29,0.956,< 5.00,0.983,< 6.00
"LS-1034 (large intestine, adherent)",0.833,2.53,0.919,< 6.00,0.807,5.23,0.944,< 4.70,0.698,6.61,0.972,< 5.00,0.55,5.76,0.942,< 5.00,0.681,5.96,0.981,< 5.00,0.978,< 6.00
